Assay results reported in the supplement of paper PMC8728848.
The other results are listed elsewhere or left out.

Assays:
Experiment in all cases: glycan array binding signal (z-score within array); higher = stronger binding
Conditions in all cases: glycan notation: IUPAC condensed, linker removed
[1] = molecular target: Gal(b1-3)[Fuc(a1-4)]GlcNAc(b1-3)Gal(b1-4)GlcNAc
Summary of the method: (§1)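 Glycan array binding is given as a within-array Z-score, which can be read as non-binding when negative. The arrays, 3228 of them, came from the Consortium for Functional Glycomics database and were retained only where the protein sequence was available. Z-scores were averaged across arrays of the same protein sequence at different concentrations or buffers and across linkers.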

[2] = molecular target: Gal(b1-3)[Fuc(a1-4)]GlcNAc(b1-3)Gal(b1-4)[Fuc(a1-3)]GlcNAc
Summary of the method: as §1

[3] = molecular target: Gal(b1-3)[GlcNAc(b1-6)]GalNAc
Summary of the method: as §1

[4] = molecular target: Gal(b1-3)[Neu5Ac(a2-6)]GalNAc
Summary of the method: as §1

[5] = molecular target: Gal(b1-3)[Neu5Ac(a2-6)]GlcNAc(b1-6)Gal(b1-4)Glc
Summary of the method: as §1

[6] = molecular target: Gal(b1-3)[Neu5Ac(b2-6)]GalNAc
Summary of the method: as §1

Gal(b1-4)Gal = molecular target: Gal(b1-4)Gal
Summary of the method: as §1

[7] = molecular target: Gal(b1-4)GalNAc(a1-3)[Fuc(a1-2)]Gal(b1-4)GlcNAc
Summary of the method: as §1

[8] = molecular target: Gal(b1-4)GalNAc(b1-3)[Fuc(a1-2)]Gal(b1-4)GlcNAc
Summary of the method: as §1

Gal(b1-4)Glc = molecular target: Gal(b1-4)Glc
Summary of the method: as §1

Gal(b1-4)Glc6S = molecular target: Gal(b1-4)Glc6S
Summary of the method: as §1

Gal(b1-4)GlcNAc = molecular target: Gal(b1-4)GlcNAc
Summary of the method: as §1

[9] = molecular target: Gal(b1-4)GlcNAc(a1-6)Gal(b1-4)GlcNAc
Summary of the method: as §1

[10] = molecular target: Gal(b1-4)GlcNAc(b1-2)Man(a1-3)Man(b1-4)GlcNAc(b1-4)GlcNAc
Summary of the method: as §1

[11] = molecular target: Gal(b1-4)GlcNAc(b1-2)Man(a1-3)[Gal(b1-4)GlcNAc(b1-2)Man(a1-6)]Man(b1-4)GlcNAc(b1-4)GlcNAc
Summary of the method: as §1

[12] = molecular target: Gal(b1-4)GlcNAc(b1-2)Man(a1-3)[Gal(b1-4)GlcNAc(b1-2)Man(a1-6)]Man(b1-4)GlcNAc(b1-4)[Fuc(a1-6)]GlcNAc
Summary of the method: as §1

[13] = molecular target: Gal(b1-4)GlcNAc(b1-2)Man(a1-3)[Gal(b1-4)GlcNAc(b1-2)][GlcNAc(b1-4)]Man(b1-4)GlcNAc(b1-4)GlcNAc
Summary of the method: as §1

[14] = molecular target: Gal(b1-4)GlcNAc(b1-2)Man(a1-3)[GlcNAc(b1-2)Man(a1-6)]Man(b1-4)GlcNAc(b1-4)GlcNAc
Summary of the method: as §1

[15] = molecular target: Gal(b1-4)GlcNAc(b1-2)Man(a1-3)[Man(a1-6)]Man(b1-4)GlcNAc(b1-4)GlcNAc
Summary of the method: as §1

[16] = molecular target: Gal(b1-4)GlcNAc(b1-2)Man(a1-6)Man(b1-4)GlcNAc(b1-4)GlcNAc
Summary of the method: as §1

[17] = molecular target: Gal(b1-4)GlcNAc(b1-2)Man(a1-6)[GlcNAc(b1-2)Man(a1-3)]Man(b1-4)GlcNAc(b1-4)GlcNAc
Summary of the method: as §1

[18] = molecular target: Gal(b1-4)GlcNAc(b1-2)Man(a1-6)[Man(a1-3)]Man(b1-4)GlcNAc(b1-4)GlcNAc
Summary of the method: as §1

[19] = molecular target: Gal(b1-4)GlcNAc(b1-2)[Gal(b1-4)GlcNAc(b1-4)]Man(a1-3)[Gal(b1-4)GlcNAc(b1-2)Man(a1-6)]Man(b1-4)GlcNAc(b1-4)GlcNAc
Summary of the method: as §1

[20] = molecular target: Gal(b1-4)GlcNAc(b1-2)[Gal(b1-4)GlcNAc(b1-4)]Man(a1-3)[Gal(b1-4)GlcNAc(b1-2)[Gal(b1-4)GlcNAc(b1-6)]Man(a1-6)]Man(b1-4)GlcNAc(b1-4)GlcNAc
Summary of the method: as §1

[21] = molecular target: Gal(b1-4)GlcNAc(b1-2)[Gal(b1-4)GlcNAc(b1-4)]Man(a1-3)[GlcNAc(b1-4)][Gal(b1-4)GlcNAc(b1-2)Man(a1-6)]Man(b1-4)GlcNAc(b1-4)GlcNAc
Summary of the method: as §1

[22] = molecular target: Gal(b1-4)GlcNAc(b1-2)[Gal(b1-4)GlcNAc(b1-6)]Man(a1-6)[GlcNAc(b1-4)][Gal(b1-4)GlcNAc(b1-2)Man(a1-3)]Man(b1-4)GlcNAc(b1-4)GlcNAc
Summary of the method: as §1

[23] = molecular target: Gal(b1-4)GlcNAc(b1-3)Gal(b1-3)GlcNAc
Summary of the method: as §1

[24] = molecular target: Gal(b1-4)GlcNAc(b1-3)Gal(b1-4)Glc
Summary of the method: as §1

[25] = molecular target: Gal(b1-4)GlcNAc(b1-3)Gal(b1-4)GlcNAc
Summary of the method: as §1

[26] = molecular target: Gal(b1-4)GlcNAc(b1-3)Gal(b1-4)GlcNAc(b1-3)Gal(b1-4)GlcNAc
Summary of the method: as §1

[27] = molecular target: Gal(b1-4)GlcNAc(b1-3)Gal(b1-4)[Fuc(a1-3)GlcNAc(b1-6)]Gal(b1-4)Glc
Summary of the method: as §1

[28] = molecular target: Gal(b1-4)GlcNAc(b1-3)Gal(b1-4)[Fuc(a1-3)]GlcNAc(b1-3)Gal(b1-4)[Fuc(a1-3)]GlcNAc
Summary of the method: as §1

[29] = molecular target: Gal(b1-4)GlcNAc(b1-3)GalNAc
Summary of the method: as §1

[30] = molecular target: Gal(b1-4)GlcNAc(b1-3)[Gal(b1-4)GlcNAc(b1-6)]Gal(b1-4)GlcNAc
Summary of the method: as §1

[31] = molecular target: Gal(b1-4)GlcNAc(b1-3)[Gal(b1-4)GlcNAc(b1-6)]GalNAc
Summary of the method: as §1

[32] = molecular target: Gal(b1-4)GlcNAc(b1-3)[GlcNAc(b1-6)]Gal(b1-4)GlcNAc
Summary of the method: as §1

[33] = molecular target: Gal(b1-4)GlcNAc(b1-6)Gal(b1-4)GlcNAc
Summary of the method: as §1

[34] = molecular target: Gal(b1-4)GlcNAc(b1-6)GalNAc
Summary of the method: as §1

B1: Gal 4 (Canis lupus) (protein)
chain: MAYVPAPGYQPTYNPTLPYNKPIPGGLSVGMSVYIQGITSEHMRRFCVNFVAGAHPGSDIAFHFNPRFDGWDKVVFNSHLGGKWGSEEKKRSMPFRKGTHFELVFMVLAEHYKVVVNGNPFYEFGHRLPLQLVTHLQVEGDVELQSINFIGGTQPLGQGPGHTQQQPSSLPTMEGPPVFNPPVPFRKRLQGGLTVRRTVIIKGFVPFTSKSFVINFMVESSGDLALHINPRLTEGLVVRNSCLNGSWGSEDRKLSYNPFIPGQFFDLSIRCGMDRFKVYANGQHLFDFSHRLLALQNVDMLEINGDVTLSYIQV
- glycan array binding signal (z-score) [1]: -0.155
- glycan array binding signal (z-score) [2]: -0.153
- glycan array binding signal (z-score) [3]: -0.152
- glycan array binding signal (z-score) [4]: -0.151
- glycan array binding signal (z-score) [5]: -0.147
- glycan array binding signal (z-score) [6]: -0.154
- glycan array binding signal (z-score) (Gal(b1-4)Gal): -0.151
- glycan array binding signal (z-score) [7]: 3.3
- glycan array binding signal (z-score) [8]: -0.145
- glycan array binding signal (z-score) (Gal(b1-4)Glc): -0.155
- glycan array binding signal (z-score) (Gal(b1-4)Glc6S): -0.121
- glycan array binding signal (z-score) (Gal(b1-4)GlcNAc): -0.153
- glycan array binding signal (z-score) [9]: -0.157
- glycan array binding signal (z-score) [10]: -0.153
- glycan array binding signal (z-score) [11]: -0.139
- glycan array binding signal (z-score) [12]: -0.115
- glycan array binding signal (z-score) [13]: -0.147
- glycan array binding signal (z-score) [14]: -0.154
- glycan array binding signal (z-score) [15]: -0.15
- glycan array binding signal (z-score) [16]: -0.156
- glycan array binding signal (z-score) [17]: -0.149
- glycan array binding signal (z-score) [18]: -0.142
- glycan array binding signal (z-score) [19]: -0.148
- glycan array binding signal (z-score) [20]: -0.141
- glycan array binding signal (z-score) [21]: -0.15
- glycan array binding signal (z-score) [22]: -0.146
- glycan array binding signal (z-score) [23]: -0.146
- glycan array binding signal (z-score) [24]: -0.11
- glycan array binding signal (z-score) [25]: -0.155
- glycan array binding signal (z-score) [26]: -0.154
- glycan array binding signal (z-score) [27]: -0.148
- glycan array binding signal (z-score) [28]: -0.138
- glycan array binding signal (z-score) [29]: -0.137
- glycan array binding signal (z-score) [30]: -0.141
- glycan array binding signal (z-score) [31]: -0.155
- glycan array binding signal (z-score) [32]: -0.15
- glycan array binding signal (z-score) [33]: -0.153
- glycan array binding signal (z-score) [34]: -0.126
